# Whole data set: some 33,000 sequences, median “E-score (-0.5 to 0.5)” near -0.054, cut for the highest 2% near 0.35. The list shows a part of the results.
# Molecular target: T1, Stb5 (UniProt P38699)
# T1 sequence: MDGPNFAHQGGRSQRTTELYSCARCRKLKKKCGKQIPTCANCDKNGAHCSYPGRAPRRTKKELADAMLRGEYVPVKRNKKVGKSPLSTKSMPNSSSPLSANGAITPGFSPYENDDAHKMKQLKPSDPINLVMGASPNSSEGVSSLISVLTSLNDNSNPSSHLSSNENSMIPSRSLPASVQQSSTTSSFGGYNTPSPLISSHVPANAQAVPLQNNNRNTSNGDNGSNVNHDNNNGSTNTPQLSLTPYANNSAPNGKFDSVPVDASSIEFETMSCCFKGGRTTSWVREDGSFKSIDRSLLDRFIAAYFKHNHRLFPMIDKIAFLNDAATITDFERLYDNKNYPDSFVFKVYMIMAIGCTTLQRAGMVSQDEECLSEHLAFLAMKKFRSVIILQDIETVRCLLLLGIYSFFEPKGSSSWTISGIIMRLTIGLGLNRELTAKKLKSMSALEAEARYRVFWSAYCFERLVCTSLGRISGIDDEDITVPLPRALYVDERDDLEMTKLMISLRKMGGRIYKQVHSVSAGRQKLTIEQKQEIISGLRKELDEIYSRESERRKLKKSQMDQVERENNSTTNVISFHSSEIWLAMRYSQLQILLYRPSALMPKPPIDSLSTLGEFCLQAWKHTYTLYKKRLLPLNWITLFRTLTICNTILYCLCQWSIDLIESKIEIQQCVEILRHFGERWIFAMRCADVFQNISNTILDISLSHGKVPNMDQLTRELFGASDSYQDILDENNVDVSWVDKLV
# Test: PBM E-score (8-mer binding enrichment) (E-score (-0.5 to 0.5)); higher = stronger / more preferred TF binding; most listed sequences are background and not binding sites
# Conditions: protein concentration: 200 nM; construct: GST-full length
# Summary of the method: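 Full-length yeast transcription factors or their DNA-binding domains, GST-tagged and expressed with PURExpress, were applied at about 100-200 nM to universal all-10-mer Agilent arrays. These arrays had been made double-stranded by primer extension on fresh or once-stripped slides. Detection used fluorescent anti-GST, normalisation used masliner, and E-scores for ungapped eight-base words pooled with reverse complements came from the Universal PBM Analysis Suite.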
row,Sequence,PBM E-score
1,ACGTCGTG,-0.178
2,GATCTACC,-0.0916
3,CCCCACAG,-0.245
4,CCCGGGTA,0.101
5,AAACGTTG,-0.259
6,AGCATCGC,0.0104
7,GACTCCTA,-0.257
8,AGCGTATG,-0.0246
9,AACGACTT,-0.163
10,CTTAGAAG,-0.246
11,CATTCTAC,-0.0787
12,CAATACTA,-0.205
13,CAGTCATG,-0.174
14,GATTTATA,0.2
15,CGGGCTGC,0.0125
16,CTGGCTAC,-0.281
17,CACATATG,-0.222
18,ACAATCCT,-0.0886
19,ATGTGTCA,-0.122
20,AACCCTGC,-0.225
21,CGTAGCTA,-0.214
22,GTACCTAA,-0.0871
23,AACTCTGG,-0.224
24,ACCCGCCC,0.276
25,AATAATCC,0.0985

row,Sequence,PBM E-score
1,ACGTCTTG,-0.186
2,CTATGGAC,0.0664
3,TATCCACA,-0.244
4,ATTGCTGG,-0.0126
5,AGTTTCCA,-0.0582
6,GAAATTTC,-0.0694
7,AGGACCGC,0.397
8,GAGTACTA,-0.223
9,CGACTACA,-0.0923
10,AGCTATAG,-0.101
11,AGCAAAGA,-0.128
12,GGGGGTAC,0.23
13,AAAGAGCT,-0.151
14,AGTTGAAT,-0.138
15,CAGCTCGC,-0.201
16,ATGGACTG,-0.26
17,CTGAAAGC,0.0506
18,AATTTCTC,0.103
19,TCCACCAA,-0.103
20,AACCAAGA,-0.0513
21,AAGGGATA,-0.138
22,CGACAACC,-0.118
23,GCAAGCGA,-0.222
24,CTCCACAA,-0.191
25,CCGAACGG,0.326

row,Sequence,PBM E-score
1,GGGTAGGA,0.0613
2,CTAAAGGA,0.0339
3,ATTTTTTG,-0.163
4,GCCCAAAA,-0.0155
5,AGTGGCAA,-0.04
6,AACCCTCC,-0.0222
7,ATAAGTCG,0.15
8,AGGAGACT,-0.297
9,AACGTTGG,-0.13
10,CACGCTCA,-0.135
11,ATGTGCGA,0.0142
12,CGTGCGCC,0.166
13,CACCAAGA,-0.103
14,ATTGGTCC,0.183
15,ATGGCGGA,0.301
16,GCGGATAC,0.241
17,CTTCCATC,-0.0873
18,ATCAGTTG,-0.328
19,CGACCAGA,0.0557
20,GATCTTGC,0.118
21,ATCGCACG,-0.164
22,TCGGCAAA,0.107
23,GAGCGATC,-0.145
24,AAGCGCGA,-0.0142
25,GACATAGC,0.00747

row,Sequence,PBM E-score
1,ACCAAGGA,-0.164
2,ATCGGGGC,0.356
3,ACTCTCCC,-0.105
4,AATAGACT,-0.155
5,ATAACCCC,0.412
6,CCGTGTAC,0.0452
7,CAGTACTA,-0.275
8,ACTTGAGC,-0.28
9,GATTTTAC,0.121
10,ACATGAGT,-0.171
11,CCTATATC,0.0282
12,AATTCCTC,-0.074
13,GTCGTGGA,-0.0244
14,CGAAATAG,0.193
15,CTCGAAGC,0.0245
16,AAGTAGAA,-0.157
17,ACAAGACC,0.116
18,ACCAGGAG,-0.167
19,CTCATAAG,-0.0661
20,TCTGCGCA,-0.154
21,AGAGGTAC,-0.205
22,CATCCCCC,0.0171
23,CGTCCGAC,0.281
24,GACGAAGC,-0.121
25,GGAACGAC,0.0626

row,Sequence,PBM E-score
1,CTAATAGA,-0.0219
2,GCCGCGAA,0.15
3,ATATAGTA,-0.0192
4,GACGGATA,0.276
5,ATCGCTTA,-0.192
6,TGCACTAA,-0.16
7,CGGGGGAG,-0.0116
8,AGATTCGG,0.183
9,AGCACATC,-0.0901
10,GAGTATGA,-0.0342
11,ACTATTGA,-0.158
12,TCCGATAA,0.248
13,AGTGGATA,0.0226
14,AGACGGGG,0.337
15,CTGAATAA,-0.0873
16,TAATTATA,0.0829
17,GGCGAAGA,0.0363
18,CCCCTACG,-0.117
19,CCAGCTTC,-0.334
20,CGCACTAC,-0.0166
21,CAAGGATA,0.0115
22,ACCACTTG,-0.106
23,CACGGTAG,0.0342
24,GTCGTTAA,-0.0792
25,AGCCCCTC,-0.251

row,Sequence,PBM E-score
1,CCCAAAAC,-0.185
2,CACTAGTG,-0.189
3,CATTATGA,-0.0857
4,CAAAAACG,-0.0422
5,CTCGAAAA,-0.0432
6,CAACCAAG,-0.0924
7,CGGGGGCA,0.275
8,ACATGAGC,-0.133
9,GAACGATA,-0.129
10,GACGAATC,-0.0686
11,AGTAACAG,-0.0575
12,AAGCCCGG,0.411
13,AGATACCC,-0.00091
14,CGCTCATA,0.155
15,AAACCCTA,-0.116
16,ACCTCTGG,-0.0823
17,CAGACCCC,0.0611
18,AGAGATGG,0.0604
19,ACAAATCA,-0.17
20,GTGATAAC,0.147
21,TAGAGAGA,-0.0919
22,CCCCAGGG,-0.252
23,GGATCACA,-0.0709
24,CAATTGCC,0.0086
25,GCGTCGCC,-0.0704

row,Sequence,PBM E-score
1,CACCGCCA,0.408
2,CTCCAACC,-0.0939
3,CGGTTCTA,0.36
4,ATGCCCAC,-0.159
5,AGTTCGAG,-0.218
6,AAATTCAC,0.0649
7,ATGATCCC,0.175
8,CACCGAAG,0.253
9,GATAAATA,0.0331
10,TGGTTGAA,-0.234
11,GGCTAAAC,-0.00562
12,GGGCGCAA,0.0579
13,GGATTATA,0.234
14,AACGTCAC,-0.192
15,ATCATGCG,-0.0179
16,ATCCTACA,-0.14
17,CGCAAGGC,0.0922
18,CGGAGCAC,0.121
19,ATTCAAAG,-0.12
20,CGTAACAG,0.0569
21,ACGGGGAG,0.202
22,CGCGGGTC,0.208
